# Assay results taken from the supplement of paper PMC9174493.
# The list shows a part of the results. Single values of this set are uncertain. Values with irradiation are relative to irradiated vehicle.
# Tested on: A549-Dual
# Test: NF-kB reporter (SEAP) activity, viability-corrected, relative to vehicle (fold change vs vehicle); higher = more activation of STING-IRF / NF-kB immune response reporter
# Details: 0.1 µM; irradiation: 8 Gy/4 fr
# 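Note: viability correction based on the alamar blue assay, with concentrations leaving 10% survival or less dropped.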
row,SMILES,NF-kB reporter
1,CC1=C(CC(=O)O)c2cc(F)ccc2/C1=C\c1ccc(S(C)=O)cc1 (stereo not given) [Sulindac],0.871
2,C1N2CN3CN1CN(C2)C3 [Methenamine],1.2
3,COc1ccc2cc(C(C)C(=O)[O-])ccc2c1.[Na+] (stereo not given) [Naproxen Sodium],0.992
4,Cc1ccc(Cl)c(Nc2ccccc2C(=O)[O][Na])c1Cl [Meclofenamate Sodium],1.07
5,O=C(OCCOCCO)c1ccccc1Nc1cccc(C(F)(F)F)c1 [Etofenamate],0.964
6,O=C([O-])c1cc(N=Nc2ccc(O)c(C(=O)[O-])c2)ccc1O.[Na+].[Na+] [Olsalazine Sodium],1.36
7,CC(=O)Nc1ccc(OC(=O)c2ccccc2OC(C)=O)cc1 [Benorylate],1
8,CO/N=C(\C(=O)NC1C(=O)N2C(C(=O)OCOC(=O)C(C)(C)C)=C(C)CSC12)c1csc(N)n1.Cl (stereo not given) [Cefetamet pivoxil hydrochloride],0.977
9,CCC(C(=O)O)c1ccc(N2Cc3ccccc3C2=O)cc1 (stereo not given) [Indobufen],1.12
10,CS(=O)(=O)O.Cc1ccc(NC(=O)c2ccc(CN3CCN(C)CC3)cc2)cc1Nc1nccc(-c2cccnc2)n1 [Imatinib Mesylate (STI571)],0.863
11,CC(C(=O)O)c1ccc(C(=O)c2ccccc2)s1 (stereo not given) [Tiaprofenic acid],1.07
12,CCc1nc(N)nc(N)c1-c1ccc(Cl)cc1 [Pyrimethamine],1.25
13,COc1cc(C2c3cc4c(cc3C(OC3OC5COC(C)OC5C(O)C3O)C3COC(=O)C23)OCO4)cc(OC)c1O (stereo not given) [Etoposide],1.14
14,CN(C)CCC(c1ccc(Br)cc1)c1ccccn1.O=C(O)/C=C\C(=O)O (stereo not given) [Brompheniramine hydrogen maleate],0.943
15,CC12CCC3c4ccc(O)cc4CC(CCCCCCCCCS(=O)CCCC(F)(F)C(F)(F)F)C3C1CCC2O (stereo not given) [Fulvestrant],0.797
16,O=C([O-])CC(O)(CC(=O)[O-])C(=O)[O-].O=C([O-])CC(O)(CC(=O)[O-])C(=O)[O-].[BiH6+3].[K+].[K+].[K+] [Gastrodenol],1.68
17,CCCCC1(COC(=O)CCC(=O)O)C(=O)N(c2ccccc2)N(c2ccccc2)C1=O [Suxibuzone],1.25
18,O=C(O)Cc1ccccc1Nc1c(Cl)cccc1Cl.OCCN1CCCC1 [Diclofenac Epolamine],0.966
19,Cl.N=C1CCCN1Cc1[nH]c(=O)[nH]c(=O)c1Cl.O=c1[nH]c(=O)n(C2CC(O)C(CO)O2)cc1C(F)(F)F.O=c1[nH]c(=O)n(C2CC(O)C(CO)O2)cc1C(F)(F)F (stereo not given),1.04
20,NC(CO)(CO)CO [Trometamol],1.33

row,SMILES,NF-kB reporter
1,COc1ccc2c(c1)c(CC(=O)O)c(C)n2C(=O)c1ccc(Cl)cc1 [Indomethacin],0.939
2,Cn1cnc([N+](=O)[O-])c1Sc1ncnc2nc[nH]c12 [Azathioprine],0.956
3,NCCNc1ccc(NCCN)c2c1C(=O)c1ccncc1C2=O.O=C(O)/C=C\C(=O)O.O=C(O)/C=C\C(=O)O [Pixantrone Maleate],0.885
4,CC(=O)Oc1cccc2c1C(=O)c1c(OC(C)=O)cc(C(=O)O)cc1C2=O [Diacerein],1.23
5,CNCC(O)c1ccc(O)c(O)c1.O=C(O)C(O)C(O)C(=O)O (stereo not given) [Epinephrine bitartrate],1.38
6,CC1(C(=O)O)CCC2(C)CCC3(C)C(=CC(=O)C4C5(C)CCC(OC6OC(C(=O)O)C(O)C(O)C6OC6OC(C(=O)O)C(O)C(O)C6O)C(C)(C)C5CCC43C)C2C1.N.N (stereo not given) [Diammonium Glycyrrhizinate],1.2
7,CCCCCCCCCCCCCCCCCCOP(=O)([O-])OC1CC[N+](C)(C)CC1 [Perifosine (KRX-0401)],0.946
8,COc1c2occc2cc2ccc(=O)oc12 [Methoxsalen],0.878
9,O=C(O)CCCN1CCC(OC(c2ccc(Cl)cc2)c2ccccn2)CC1 (stereo not given) [Bepotastine],1.16
10,CN(C)CCCOc1nn(Cc2ccccc2)c2ccccc12.Cl [Benzydamine HCl],1.34
11,CC(C(=O)O)c1ccc2c(c1)[nH]c1ccc(Cl)cc12 (stereo not given) [Carprofen],1.11
12,COc1cc2nccc(Oc3ccc(NC(=O)Nc4cc(C)on4)c(Cl)c3)c2cc1OC [Tivozanib (AV-951)],0.786
13,Oc1ccc(/C=C/c2cc(O)cc(O)c2)cc1 [Resveratrol],0.985
14,Nc1cccc2c1C(=O)N(C1CCC(=O)NC1=O)C2=O (stereo not given) [Pomalidomide],0.984
15,COc1cc(C2c3cc4c(cc3C(OC3OC5COC(c6cccs6)OC5C(O)C3O)C3COC(=O)C23)OCO4)cc(OC)c1O (stereo not given) [Teniposide],0.671
16,S=c1nc[nH]c2nc[nH]c12 [Mercaptopurine (6-MP)],0.924
17,CC(C(=O)O)c1ccc2c(c1)CC(=O)c1ccccc1S2 (stereo not given) [Zaltoprofen],0.821
18,Cc1nc(Nc2ncc(C(=O)Nc3c(C)cccc3Cl)s2)cc(N2CCN(CCO)CC2)n1.Cl [Dasatinib hydrochloride],0.784
19,"O=c1[nH]cc(F)c(=O)[nH]1 [Fluorouracil (5-Fluoracil, 5-FU)]",1.19
20,COc1cc(/C=C/C(=O)/C=C(O)/C=C/c2ccc(O)c(OC)c2)ccc1O [Curcumin],0.905
